The list shows a part of the results.

In test [1] the test system is HSkMC (human skeletal muscle cells). As to the kind of experiment: cytotoxicity call (relative viability < 0.9). The conditions noted are these: 10 µM.
Test [2] deals with HepG2. Description: cytotoxicity call (relative viability < 0.9). The following applies: 10 µM.
Test [3] concerns S. aureus RN4220. As to the kind of experiment: growth inhibition call (relative growth <= 0.2). The following applies: 50 µM.

Regarding `Cc1ccc(S(=O)(=O)Nc2ccc3c(c2)CC(=O)N([C@H](C)CO)C[C@@H](C)[C@@H](CN(C)S(=O)(=O)c2ccccc2)O3)cc1`, the cytotoxicity call in test [1] and in test [2] was “inactive” each time. Moreover, the growth inhibition call in test [3] was “inactive”.
Regarding `C[C@@H]1CN([C@H](C)CO)C(=O)c2cc(NC(=O)Nc3ccccc3)ccc2O[C@@H]1CN(C)C(=O)Nc1ccc(C(F)(F)F)cc1`, the cytotoxicity call in test [1] and in test [2] was “inactive” each time. Further, the growth inhibition call in test [3] is “inactive”.
For `COc1cccc(NC(=O)N(C)C[C@H]2Oc3ncc(C#Cc4ccncc4)cc3C(=O)N([C@@H](C)CO)C[C@@H]2C)c1`, in test [1], the cytotoxicity call was “inactive”. Besides, the cytotoxicity call in test [2] was “active”. Further, the growth inhibition call in test [3] was “inactive”.
With `C[C@H]1CN([C@@H](C)CO)C(=O)Cc2cc(NS(=O)(=O)c3ccccc3)ccc2O[C@@H]1CN(C)Cc1ccc(C(=O)O)cc1`, the cytotoxicity call in test [1] and in test [2] was “inactive” each time. Besides, the growth inhibition call in test [3] was “inactive”.
For `Cl.NCC(=O)CCC(=O)O`, the cytotoxicity call in test [1] and in test [2] was “inactive” in each case. For the same compound, the growth inhibition call in test [3] is “inactive”.
As for `CN(C)C(=O)C[C@@H]1CC[C@@H](NC(=O)C2CCOCC2)[C@H](CO)O1`, the cytotoxicity call in test [1] and in test [2] was “inactive” in each case. In addition, the growth inhibition call in test [3] was “inactive”.
Take `C[C@@H]1CN([C@@H](C)CO)C(=O)c2cccc(NS(=O)(=O)c3cccs3)c2O[C@@H]1CN(C)Cc1ccc(Cl)c(Cl)c1`: the cytotoxicity call in test [1] and in test [2] was “inactive” throughout. Moreover, the growth inhibition call in test [3] was “inactive”.
On to `C[C@@H]1CN([C@H](C)CO)C(=O)c2cc(NC(=O)CCCN(C)C)ccc2O[C@H]1CN(C)S(=O)(=O)c1cn(C)cn1`, for which the cytotoxicity call in test [1] and in test [2] was “inactive” throughout. For the same compound, the growth inhibition call in test [3] was “inactive”.
In the case of `COc1ccc([Si](C)(C)[C@H]2[C@H](CC(=O)N(CCO)Cc3ccccc3)O[C@@]3(C(=O)N(Cc4cccc(N5C(=O)c6cccc7cccc5c67)c4)c4ccccc43)[C@@H]2C)cc1`, the cytotoxicity call in test [1] is “inactive”. The cytotoxicity call in test [2] is “active”. Also, in test [3], the growth inhibition call was “inactive”.
In the case of `COc1ccc(NC(=O)Nc2ccc3c(c2)C(=O)N([C@H](C)CO)C[C@@H](C)[C@H](CN(C)S(=O)(=O)c2ccc(OC)cc2)OCCCC[C@@H](C)O3)cc1`, the cytotoxicity call in test [1] was “inactive”. For the same compound, the cytotoxicity call in test [2] is “active”. The growth inhibition call in test [3] was “inactive”.
As for `C[C@@H]1CCCCO[C@@H](CN(C)C(=O)c2ccccc2)[C@H](C)CN([C@H](C)CO)C(=O)c2cc(NC(=O)Nc3ccc(C(F)(F)F)cc3)ccc2O1`, the cytotoxicity call in test [1] and in test [2] was “inactive” throughout. In addition, the growth inhibition call in test [3] was “inactive”.
For the compound `Cc1noc(C)c1S(=O)(=O)Nc1ccc2c(c1)C(=O)N([C@H](C)CO)C[C@@H](C)[C@H](CN(C)Cc1ccc(C(F)(F)F)cc1)OCCCC[C@H](C)O2`, the cytotoxicity call in test [1] is “inactive”. The cytotoxicity call in test [2] is “active”. In test [3], the growth inhibition call is “inactive”.
Regarding `CCCCC/C=C\C/C=C\CCCCCCCC(=O)O[C@H](COC(=O)CCCCCCCCCCCCCCC)COP(=O)(O)OCC[N+](C)(C)C`, the cytotoxicity call in test [1] and in test [2] was “inactive” throughout. In addition, the growth inhibition call in test [3] was “inactive”.
On to `Cc1noc(C)c1S(=O)(=O)Nc1cccc2c1O[C@H](CN(C)Cc1ccc3c(c1)OCO3)[C@H](C)CN([C@@H](C)CO)C2=O`, for which the cytotoxicity call in test [1] and in test [2] was “inactive” in each case. Besides, the growth inhibition call in test [3] was “inactive”.
Take `C[C@@H]1CN([C@@H](C)CO)C(=O)c2cccc(NS(=O)(=O)c3cn(C)cn3)c2O[C@@H]1CN(C)S(=O)(=O)c1cn(C)cn1`: the cytotoxicity call in test [1] and in test [2] was “inactive” each time. Also, the growth inhibition call in test [3] was “inactive”.
Turning to `Cc1ccc(S(=O)(=O)Nc2ccc3c(c2)C(=O)N([C@@H](C)CO)C[C@H](C)[C@@H](CN(C)C(=O)NC2CCCCC2)OCCCC[C@@H](C)O3)cc1`, the cytotoxicity call in test [1] and in test [2] was “inactive” throughout. For the same compound, the growth inhibition call in test [3] was “inactive”.
Regarding `Cc1noc(C)c1S(=O)(=O)Nc1ccc2c(c1)CC(=O)N([C@H](C)CO)C[C@@H](C)[C@@H](CN(C)C(=O)NC1CCCCC1)O2`, the cytotoxicity call in test [1] and in test [2] was “inactive” each time. Besides, the growth inhibition call in test [3] is “inactive”.
For `COc1ccccc1CNS(C)(=O)=O`, the cytotoxicity call in test [1] and in test [2] was “inactive” each time. In addition, the growth inhibition call in test [3] was “inactive”.
For `C[C@@H]1CCCCO[C@@H](CN(C)Cc2ccc(C(F)(F)F)cc2)[C@@H](C)CN([C@@H](C)CO)C(=O)c2cc(NC(=O)Nc3ccc4c(c3)OCO4)ccc2O1`, the cytotoxicity call in test [1] and in test [2] was “inactive” each time. In addition, the growth inhibition call in test [3] is “inactive”.
For the compound `COc1cc(C2c3cc4c(cc3C(OC3OC5COC(c6cccs6)OC5C(O)C3O)C3COC(=O)C23)OCO4)cc(OC)c1O` (centres undefined), the cytotoxicity call in test [1] was “inactive”. Besides, the cytotoxicity call in test [2] was “active”. Moreover, the growth inhibition call in test [3] is “inactive”.
Turning to `Cc1ccc(S[C@]2(C(=O)NCCN3CCOCC3)CC(=O)N(Cc3cc(C(F)(F)F)cc(C(F)(F)F)c3)[C@@H]2c2ccc(CO)cc2I)cc1`, the cytotoxicity call in test [1] and in test [2] was “inactive” in each case. Further, in test [3], the growth inhibition call is “inactive”.
As to `Cc1noc(C)c1NC(=O)Nc1ccc2c(c1)C(=O)N([C@H](C)CO)C[C@H](C)[C@H](CN(C)S(=O)(=O)c1ccc(Cl)cc1)OCCCC[C@H](C)O2`, the cytotoxicity call in test [1] and in test [2] was “inactive” throughout. The growth inhibition call in test [3] is “inactive”.
As for `C[C@H]1CN([C@@H](C)CO)C(=O)Cc2cc(NS(=O)(=O)c3cn(C)cn3)ccc2O[C@H]1CN(C)S(=O)(=O)c1ccccc1`, the cytotoxicity call in test [1] and in test [2] was “inactive” each time. Besides, the growth inhibition call in test [3] is “inactive”.
For the compound `CN1CCN(C(=O)C[C@@H]2CC[C@@H]3[C@@H](COc4ccc(NC(=O)C5CCCCC5)cc4C(=O)N3C)O2)CC1`, the cytotoxicity call in test [1] and in test [2] was “inactive” throughout. The growth inhibition call in test [3] was “inactive”.
On to `Cc1ccc(S(=O)(=O)N[C@@H](Cc2ccccc2)C(=O)NCCCn2cc(-c3ccccc3N)nn2)cc1`, for which the cytotoxicity call in test [1] and in test [2] was “inactive” throughout. For the same compound, the growth inhibition call in test [3] was “inactive”.
For `COc1ccc(NC(=O)Nc2ccc3c(c2)C(=O)N([C@H](C)CO)C[C@H](C)[C@@H](CN(C)C(=O)Cc2ccccc2)OCCCC[C@H](C)O3)cc1`, the cytotoxicity call in test [1] and in test [2] was “inactive” throughout. In addition, the growth inhibition call in test [3] is “inactive”.
In the case of `O=C(C[C@H]1CC[C@@H](NC(=O)Cc2ccccn2)[C@H](CO)O1)NCCc1ccncc1`, the cytotoxicity call in test [1] and in test [2] was “inactive” in each case. Also, the growth inhibition call in test [3] is “inactive”.
On to `C[C@H](CO)N1C[C@H](C)[C@@H](CN(C)S(=O)(=O)c2ccccc2F)Oc2cc(-c3ccncc3)ccc2S1(=O)=O`, for which the cytotoxicity call in test [1] and in test [2] was “inactive” in each case. In test [3], the growth inhibition call is “inactive”.

These data come from the antibiotic and cytotoxicity screens of Wong et al. (2023).
